The source gives no read counts; variants with many changes may rest on few reads.
B1: LINE1-full (parent)
chain: UACGUAGGUGGUUUUCCCCUGAUAGUGCUAAGGGGGCCUGGAAGUUUGGACUGGGCAGAGCUCAACACAGCGUGGCAAAGUGGCUGUGGCUAGACUGCCUCUCUGGAUUCCUCGUCACUCAGCAGGGCAUCUCUGAGAGAAAUGCC

Variants of: B1
Test: self-cleavage, relative activity (ratio to wild type); higher = more cleavage; in vitro, sequencing; the parent is a self-cleaving ribozyme

Variant | self-cleavage
G35A G40A U47C | 0.21
C19U U45C A136G | 1.06
A67U A77U U112C | 0.03
U29C A43G A67G U119C | 0
U5C G40A G97A A129G | 0.23
A78U C84U A142G | 0.05
A57G U87A U96C | 0.25
U12C U85C U143C | 0.26
U26C U115A A142U | 1.5
A78G U115C A136G | 1.44
U12G U52C U104C C110U | 1.67
G33U A69U C118U U130A | 0.04
U46C U96A A107C U115A G135A | 0.11
U14C U23C A43G U62C G82U | 0.31
U15A A94U A141G U143C | 0.27
A31G G32A A57G | 0.4
U12G G74A A142C U143C G144U | 1.53
A42G A78G U143C | 1.37
G54A A77U U119C | 1.04
U9C G135A A136G | 0.98
U13C G34A C90A | 0.05
C16A U96C A136G | 0.18
A43G U46A U62C | 0.03
U13C U46A U100A | 1.17

Variant | self-cleavage
U13C U39A C120A | 2.21
G36C U109A A121G A129G | 2.35
U62A U96C U104A | 0.04
U100C G135A A141G | 2
G53U U62C A67G | 0.12
U52C A57U A64G U91A | 0.19
A65G A94C A138G | 0
U62C U96C U104A | 0.05
A30G A42G A141G | 0.31
U109C U130C A141G | 1.31
U96C A124G C133G | 0.08
U20G A65C U100C A138G | 0.48
U9C U62A G72C | 0.09
U13C A64G U108C A129U A142G | 0.47
U26A A42G G53A A65G A94G | 0.1
U47C A57G U130A | 0
U9C U12C A94G | 0
A30G U47C A64U | 0.5
U87C U132A U134C | 0.4
G25U A43U A69G U85G A124U | 0.13
A59G U62C G135U | 0.03
U26C A79U G114A A124U | 1.76
U15A C63U A107G | 0.27
A50G U115C U132C | 0

Variant | self-cleavage
U12C A30G G54A A64U A142G | 0.76
A59G U119A A138G | 0.06
A6U G75A U91C U96C U112C A141G | 0.11
C95U U102A G106U | 0.12
U9A U73C C116U | 2.09
U9C G25A A69G | 0.77
U20A A42G U115A A140G | 1.58
U23C A42G U96C | 0.45
U23C A129G U134C | 1.79
U13C U46A A94G | 0.38
G21A U73A U96C U115A A138G | 0.11
A30G U39A U73A A140U | 1.5
U52C G75A U96A | 0.09
A30G U85C U100A A117U A140G | 0
G21A U85A A124G | 0.1
U14C A22G A77G A79G | 0
A64G G126A U143A | 0.21
U52A A57G A124U U132C | 0.69
U14C U45C U52C U85C | 0
U14G A22G U87A | 0.88
U26C A31U A50G U52A U115C | 0
C19U U62C U96C | 0.05
C99U U100C U102C | 0.77
A2G U5A U109C A140U | 0.92

Variant | self-cleavage
U62C U85C A124G | 0
A31G A42G G72U G126A | 1.02
G93A A117G A124G U130C | 0
A78G A92G U143C | 0.22
U5C U12C C71U A136G | 0.94
U13C U45C U62A | 0.05
G32A G53U A121U | 2.06
U62A U119C A136G | 0.02
A22G U46C A59G A65G C128G | 0
G21A U104A C116U | 0.79
A30G A43G G72A U112A | 1.23
G27A C84G U134A | 0
A77G A136G U143C | 2.86
A64C U104C A136G | 0.58
U73C U100C U112C | 0
G41U A59U U73C G74A A124G | 0.47
U26A A79G A117U | 1.24
U29C A141G U143C | 2.04
U5C U26C U100C | 1.02
G34C U96A G126A A141G | 0.08
U26C U39C A64U A92G | 0.13
U9C G27A A59G U96C | 0
A69U A79G U143C | 0.09
A2C A67G A129G | 0

Variant | self-cleavage
U26C A30G G106A | 1.77
A2G G41A U100C U104C U112C | 0.51
A24G A92G A140G U143C | 0
U104A U130G A136G | 1.64
A50G U62C A77G A136U | 0.29
A64G A65G A136G | 0
U1A U115A A117U A129G | 2.09
U9C U45C A50G | 2.09
U23C U47C A50G U91A U100C | 0
A77G U85C U134A | 0.11
G25A U115A U134A | 0.89
A57U U73A U104A | 0.05
A50U U52A A65G A141G U143C | 0.07
G7U U15C G33U C68A | 0.05
U14C A22U U62C | 0.25
U47C U96A U102C | 0.16
U9C A42G U45A | 1.49
U108C U119A A138U | 2.21
C19U U62C A94G | 0.09
A59G A69G A79G U91A U115A | 0
C61U A124G A138G A140G | 0
U12C U73C A138G | 1.36
A22G U73A U119A | 1.43
G72A A77U G93A U102C U132C | 0.02

Variant | self-cleavage
A78G U104A A142G | 0.92
U12C U96C U100C G106A A107G | 0
U29G A42G A107U | 1.45
U52C U108C A124G | 2.3
U87A U96A U109A | 0.09
A42G G55A A64G U119C | 0.07
U9A U85A U115A A124G U143A | 0.21
U39G U46C A79G | 0.57
U1C U12C U134C | 0.84
U14C G74U A142U U143C | 0.85
A22G A57G A64U A77G | 0.42
A2G U100C A141U A142U | 1.09
U20C U46C A138G | 2.24
U13C A42G U46C | 2.03
U9C U20C U112A U115G A129U | 1.97
U13C A30G U108C U143C | 1.88
A43G A77U U96A A129G A136G | 0.07
A6G A43G U62C G97A | 0.11
A2U U130C A140G | 0.88
U9A A43G A64G U115C A142G | 0
U85C U87A A140U | 0
U12C A57U A64G A94G U130C | 0
U26A U62C A78G U87C | 0
A65G U112C G125A | 0.04

Variant | self-cleavage
U5C U9A U62C | 0
U20A A77G U119C | 2.09
A30U U46C A79G | 1.2
U52A A65U G72C U109A A138G | 0.19
A43G G126A A142G | 1.33
U47A U91A U102A U115A A140G | 0.56
A22G G49A C63U A92U A121G | 0.29
A2G U87A C131A | 0
A22G G35A U45C A142G | 0.65
U13G U20C A43G A59U | 1.11
U13G G40A A142U | 0.58
G33A U47C U112A | 0.29
A79G G125C A141C | 1.58
A2G A79G U81C A142G | 0
A22U A78G A94G | 0
A107G A121G G127A | 1.26
U9C C19U A78G | 1.18
A42G G53A U119A | 1.45
G7A U23A A78G A79G U87A U96C | 0
U12C A69U A79G A140G | 0.04
A79C A136U A141G | 0
U1C A57G A64U A138G | 0.13
A30G A59G G80A U85A | 0.19

From the RNAGym collection of RNA variant scans (doi:10.7554/elife.90254)
